{
  "source": "paper PMC12820563",
  "note": "This is one part of the list. The list includes weakly bound sequences.",
  "data": [
    {"target": "T1, MBP-FoxP3dN (UniProt Q99JB6)", "T1 sequence": "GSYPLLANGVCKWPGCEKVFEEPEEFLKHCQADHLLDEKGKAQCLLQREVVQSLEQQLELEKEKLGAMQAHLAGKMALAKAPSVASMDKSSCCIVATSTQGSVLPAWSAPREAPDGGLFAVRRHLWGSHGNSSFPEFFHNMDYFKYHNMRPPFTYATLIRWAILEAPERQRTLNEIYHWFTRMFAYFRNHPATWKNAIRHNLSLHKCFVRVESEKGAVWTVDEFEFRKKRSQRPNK", "assay": "PD-seq (MBP pull-down with sequencing)", "conditions": "20 mM Tris-HCl pH 7.5, 100 mM NaCl, 1.5 mM MgCl2, 0.4 uM protein, 0.1 uM dsDNA library, 30 min, room temperature, amylose pull-down; high values mean tight binding; double strand, one strand shown", "values": [
      {"sequence": "GATGATTGTTCTCCCAGCTGATGAATTGGTCTTATCGAGTAAACAAATTTTCCTAATCTTTCTGTTCAAGCGCCATCTAC", "binding signal (RPM ratio (pull-down/input))": 0.456},
      {"sequence": "GATGATTGTTCTCCCAGCTGATGAATTGTCGCCCTCGAGTAAACAAATTTTCCTAATCTTTCTGTTCAAGCGCCATCTAC", "binding signal (RPM ratio (pull-down/input))": 0.683},
      {"sequence": "GATGATTGTTCTCCCAGCTGATGAATTACCCTGGTCGAGTAAACAAATTTTCCTAATCTTTCTGTTCAAGCGCCATCTAC", "binding signal (RPM ratio (pull-down/input))": 0.217},
      {"sequence": "GATGATTGTTCTCCCAGCTGATGAATTATCCGTTTCGAGTAAACAAATTTTCCTAATCTTTCTGTTCAAGCGCCATCTAC", "binding signal (RPM ratio (pull-down/input))": 0.339},
      {"sequence": "GATGATTGTTCTCCCAGCTGATGAATTTTCGCATTCGAGTAAACAAATTTTCCTAATCTTTCTGTTCAAGCGCCATCTAC", "binding signal (RPM ratio (pull-down/input))": 6.27},
      {"sequence": "GATGATTGTTCTCCCAGCTGATGAATTGTCTAGTTCGAGTAAACAAATTTTCCTAATCTTTCTGTTCAAGCGCCATCTAC", "binding signal (RPM ratio (pull-down/input))": 0.488},
      {"sequence": "GATGATTGTTCTCCCAGCTGATGAATTAGATGCGTCGAGTAAACAAATTTTCCTAATCTTTCTGTTCAAGCGCCATCTAC", "binding signal (RPM ratio (pull-down/input))": 2.24},
      {"sequence": "GATGATTGTTCTCCCAGCTGATGAATTGTTGCAATCGAGTAAACAAATTTTCCTAATCTTTCTGTTCAAGCGCCATCTAC", "binding signal (RPM ratio (pull-down/input))": 5.54},
      {"sequence": "GATGATTGTTCTCCCAGCTGATGAATTCATATGGTCGAGTAAACAAATTTTCCTAATCTTTCTGTTCAAGCGCCATCTAC", "binding signal (RPM ratio (pull-down/input))": 0.675},
      {"sequence": "GATGATTGTTCTCCCAGCTGATGAATTAAGTCGTTCGAGTAAACAAATTTTCCTAATCTTTCTGTTCAAGCGCCATCTAC", "binding signal (RPM ratio (pull-down/input))": 0.672},
      {"sequence": "GATGATTGTTCTCCCAGCTGATGAATTAGAGTTTTCGAGTAAACAAATTTTCCTAATCTTTCTGTTCAAGCGCCATCTAC", "binding signal (RPM ratio (pull-down/input))": 0.705},
      {"sequence": "GATGATTGTTCTCCCAGCTGATGAATTACGGCATTCGAGTAAACAAATTTTCCTAATCTTTCTGTTCAAGCGCCATCTAC", "binding signal (RPM ratio (pull-down/input))": 5.15},
      {"sequence": "GATGATTGTTCTCCCAGCTGATGAATTGCTGAAATCGAGTAAACAAATTTTCCTAATCTTTCTGTTCAAGCGCCATCTAC", "binding signal (RPM ratio (pull-down/input))": 0.451},
      {"sequence": "GATGATTGTTCTCCCAGCTGATGAATTTGGTATATCGAGTAAACAAATTTTCCTAATCTTTCTGTTCAAGCGCCATCTAC", "binding signal (RPM ratio (pull-down/input))": 2.5},
      {"sequence": "GATGATTGTTCTCCCAGCTGATGAATTGGTTTGATCGAGTAAACAAATTTTCCTAATCTTTCTGTTCAAGCGCCATCTAC", "binding signal (RPM ratio (pull-down/input))": 1.11},
      {"sequence": "GATGATTGTTCTCCCAGCTGATGAATTAGATAATTCGAGTAAACAAATTTTCCTAATCTTTCTGTTCAAGCGCCATCTAC", "binding signal (RPM ratio (pull-down/input))": 0.369},
      {"sequence": "GATGATTGTTCTCCCAGCTGATGAATTAGTGGTATCGAGTAAACAAATTTTCCTAATCTTTCTGTTCAAGCGCCATCTAC", "binding signal (RPM ratio (pull-down/input))": 1.83},
      {"sequence": "GATGATTGTTCTCCCAGCTGATGAATTCCCTAACTCGAGTAAACAAATTTTCCTAATCTTTCTGTTCAAGCGCCATCTAC", "binding signal (RPM ratio (pull-down/input))": 0.266},
      {"sequence": "GATGATTGTTCTCCCAGCTGATGAATTGCACGCCTCGAGTAAACAAATTTTCCTAATCTTTCTGTTCAAGCGCCATCTAC", "binding signal (RPM ratio (pull-down/input))": 1.28},
      {"sequence": "GATGATTGTTCTCCCAGCTGATGAATTCCCTGCCTCGAGTAAACAAATTTTCCTAATCTTTCTGTTCAAGCGCCATCTAC", "binding signal (RPM ratio (pull-down/input))": 0.312},
      {"sequence": "GATGATTGTTCTCCCAGCTGATGAATTACAGATATCGAGTAAACAAATTTTCCTAATCTTTCTGTTCAAGCGCCATCTAC", "binding signal (RPM ratio (pull-down/input))": 0.486},
      {"sequence": "GATGATTGTTCTCCCAGCTGATGAATTGGTCGTCTCGAGTAAACAAATTTTCCTAATCTTTCTGTTCAAGCGCCATCTAC", "binding signal (RPM ratio (pull-down/input))": 0.687},
      {"sequence": "GATGATTGTTCTCCCAGCTGATGAATTGCTACTGTCGAGTAAACAAATTTTCCTAATCTTTCTGTTCAAGCGCCATCTAC", "binding signal (RPM ratio (pull-down/input))": 0.785},
      {"sequence": "GATGATTGTTCTCCCAGCTGATGAATTCGCCGATTCGAGTAAACAAATTTTCCTAATCTTTCTGTTCAAGCGCCATCTAC", "binding signal (RPM ratio (pull-down/input))": 0.306},
      {"sequence": "GATGATTGTTCTCCCAGCTGATGAATTTAAGTATTCGAGTAAACAAATTTTCCTAATCTTTCTGTTCAAGCGCCATCTAC", "binding signal (RPM ratio (pull-down/input))": 1.31},
      {"sequence": "GATGATTGTTCTCCCAGCTGATGAATTTACTATTTCGAGTAAACAAATTTTCCTAATCTTTCTGTTCAAGCGCCATCTAC", "binding signal (RPM ratio (pull-down/input))": 1.19},
      {"sequence": "GATGATTGTTCTCCCAGCTGATGAATTGGATCAATCGAGTAAACAAATTTTCCTAATCTTTCTGTTCAAGCGCCATCTAC", "binding signal (RPM ratio (pull-down/input))": 0.26},
      {"sequence": "GATGATTGTTCTCCCAGCTGATGAATTAGCTCGCTCGAGTAAACAAATTTTCCTAATCTTTCTGTTCAAGCGCCATCTAC", "binding signal (RPM ratio (pull-down/input))": 0.272},
      {"sequence": "GATGATTGTTCTCCCAGCTGATGAATTACTCCTTTCGAGTAAACAAATTTTCCTAATCTTTCTGTTCAAGCGCCATCTAC", "binding signal (RPM ratio (pull-down/input))": 0.324},
      {"sequence": "GATGATTGTTCTCCCAGCTGATGAATTCTGCGAGTCGAGTAAACAAATTTTCCTAATCTTTCTGTTCAAGCGCCATCTAC", "binding signal (RPM ratio (pull-down/input))": 1.09},
      {"sequence": "GATGATTGTTCTCCCAGCTGATGAATTGATCATTTCGAGTAAACAAATTTTCCTAATCTTTCTGTTCAAGCGCCATCTAC", "binding signal (RPM ratio (pull-down/input))": 0.757},
      {"sequence": "GATGATTGTTCTCCCAGCTGATGAATTGACGTGCTCGAGTAAACAAATTTTCCTAATCTTTCTGTTCAAGCGCCATCTAC", "binding signal (RPM ratio (pull-down/input))": 0.454}
    ]}
  ]
}
